Measured values taken from paper PMC4336329 (PLoS ONE, 2015).
Hit rate of the full screen: of about 310,000 compounds, about 2,200 (0.71%) showed an effect of 50% or more. Effects have a minus sign here. This is one part of the list.

Target: human ether-à-go-go-related gene (hERG) potassium channel (human, UniProt Q12809)
Assay: primary screen, population patch clamp on CHO cells stably expressing hERG

Sequence of human ether-à-go-go-related gene (hERG) potassium channel (Q12809 whole entry, looked up): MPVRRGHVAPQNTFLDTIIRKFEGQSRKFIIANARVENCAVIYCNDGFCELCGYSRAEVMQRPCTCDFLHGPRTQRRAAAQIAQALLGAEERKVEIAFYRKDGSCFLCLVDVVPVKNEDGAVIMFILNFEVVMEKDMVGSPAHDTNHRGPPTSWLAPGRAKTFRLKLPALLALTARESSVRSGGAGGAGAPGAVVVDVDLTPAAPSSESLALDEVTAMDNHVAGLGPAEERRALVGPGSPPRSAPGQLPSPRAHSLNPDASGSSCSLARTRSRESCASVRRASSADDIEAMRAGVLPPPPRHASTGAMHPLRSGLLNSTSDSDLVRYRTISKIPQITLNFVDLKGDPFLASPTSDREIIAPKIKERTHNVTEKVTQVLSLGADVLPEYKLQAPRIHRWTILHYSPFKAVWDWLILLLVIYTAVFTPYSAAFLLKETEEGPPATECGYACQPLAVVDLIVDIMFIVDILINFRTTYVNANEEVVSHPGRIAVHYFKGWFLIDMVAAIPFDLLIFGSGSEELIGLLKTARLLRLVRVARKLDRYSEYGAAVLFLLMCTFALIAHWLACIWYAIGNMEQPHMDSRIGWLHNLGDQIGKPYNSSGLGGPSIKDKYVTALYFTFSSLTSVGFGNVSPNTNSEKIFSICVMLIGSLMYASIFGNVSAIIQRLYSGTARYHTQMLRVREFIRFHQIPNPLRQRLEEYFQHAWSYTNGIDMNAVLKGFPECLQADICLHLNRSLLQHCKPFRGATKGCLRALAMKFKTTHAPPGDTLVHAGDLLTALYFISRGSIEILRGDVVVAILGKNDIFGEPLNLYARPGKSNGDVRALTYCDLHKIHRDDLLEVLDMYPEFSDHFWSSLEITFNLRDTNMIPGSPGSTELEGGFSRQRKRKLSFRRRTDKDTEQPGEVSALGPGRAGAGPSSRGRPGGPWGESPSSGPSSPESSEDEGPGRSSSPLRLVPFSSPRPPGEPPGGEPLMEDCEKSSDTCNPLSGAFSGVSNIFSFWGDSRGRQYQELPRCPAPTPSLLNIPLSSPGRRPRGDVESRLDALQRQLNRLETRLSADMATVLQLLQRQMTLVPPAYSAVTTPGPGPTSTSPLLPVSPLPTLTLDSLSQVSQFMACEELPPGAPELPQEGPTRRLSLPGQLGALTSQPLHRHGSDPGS

Compound | hERG current change (%, negative = inhibition) at 1uM
O=C(NCc1cccc(C(F)(F)F)c1)c1cccc(Cl)c1Cl | -0.138%
O=C(NC1CC1)C1CCN(c2ncnc3c2sc2cccc(F)c23)CC1 | -0.298%
COc1ccc(NC(=O)CCl)cn1 | 11.1%
c1cncc(CSc2ccc(-c3cccs3)nn2)c1 | -4%
CCCCN(CC)CCNC(=O)Cn1cnc2sc(C)c(S(=O)(=O)N3CCOCC3)c2c1=O | 9.32%
CN(C)S(=O)(=O)c1ccc(C(=O)N(c2ccccn2)c2ccccn2)cc1 | 10.3%
Cc1ccccc1NC(=O)C1CCCN1/C=C/C(=O)C(F)(F)F (stereo not drawn) | 10.2%
N#CC(C#N)=Cc1cccn1-c1ccc(S(N)(=O)=O)cc1 | 13%
Cc1cccc(NC2(C(F)(F)F)N=C3SCCN3C2=O)n1 (stereo not drawn) | 10.8%
O=C(c1ccccc1Cl)N1N=C(c2ccc(Br)cc2)CC1c1nc2ccccc2[nH]1 (stereo not drawn) | 0.704%
Cc1ccc(-n2c(CSc3nc(C)cc(C)n3)n[nH]c2=S)cc1 | 14.7%
CCCCn1c(SCC(=O)Nc2sc3c(c2C(N)=O)CCC3)nnc1-c1ccccc1 | 12.9%
CCCc1c(C(=O)Nc2ccc(F)cc2C)cnn1-c1ccccc1 | 7.25%
Cc1ccc(C)n1Cc1ccc(C(=O)O)cc1 | 12.1%
N#Cc1ccc(C(=O)NC2CCCc3ccccc32)cc1 (stereo not drawn) | -23.4%
O=C(NN(CC(O)COc1ccccc1)CC(O)COc1ccccc1)c1ccccc1 (stereo not drawn) | -19.9%
Clc1ccc(-[n+]2c(-c3cccc(Br)c3)[nH]c3nc4ccccc4nc32)cc1 | 12%
Cc1cc2c(N=O)c(NO)ccc2[nH]1 | 5.04%
C#CCOCCOCCOCCNc1nc(N2CCN(C(=O)[C@H](CCCCN)n3cc([C@@H](N)CC(C)C)nn3)CC2)nc(N2CCN(C(=O)[C@H](Cc3cc4ccccc4[nH]3)n3cc([C@@H](N)Cc4ccc(O)cc4)nn3)CC2)n1.Cl | 5.89%
CN(C)CCNC(=O)c1scc2c1CCCC2.Cl | 6.51%
COc1ccc(C)cc1S(=O)(=O)N1CCC(C)CC1 | -10.9%
CCOC(=O)c1c(S(=O)(=O)N2CCCC2)c(C)n(C)c1C | 12.8%
O=C(Nc1cccn(Cc2ccccc2Cl)c1=O)NC1CCCCC1 | 5.93%

Compound | hERG current change (%, negative = inhibition) at 1uM
Cc1ccsc1C(=O)N1CCC(N2CCC(C(=O)NCC3CCCO3)CC2)CC1 (stereo not drawn) | 9.38%
CC(C)c1ccc2nc3sc(C(=O)N4CCc5ccccc5C4)c(N)c3cc2c1 | 9.94%
COc1cc2[nH]c(=S)nc(NCc3cccnc3)c2cc1OC | 13.2%
CC(NC(=S)Nc1ccc([N+](=O)[O-])cc1)c1ccncc1 (stereo not drawn) | 11.1%
COC(=O)c1ccc(NC(=O)c2cccc(NC(=O)c3ccccc3)c2)cc1 | 17.5%
Cc1ccc(C2CC2C(=O)NNC(=S)Nc2cccc(Cl)c2)cc1 (stereo not drawn) | 0.828%
COc1cc(/C=C/C(=O)O)cc(S(=O)(=O)N(CC(C)C)CC(C)C)c1OC | 20.5%
COc1ccc(Cc2nnc(SCC(=O)c3ccc4c(c3)NC(=O)CO4)o2)cc1 | 13.6%
CCN(CC)c1cccc(OC2=NS(=O)(=O)c3ccccc32)c1 | 6.59%
O=C(CCl)N=c1sccn1Cc1ccccc1Cl | 12%
CC1(C)Cc2ccccc2-c2nc(NCCO)n(-c3ccccc3)c(=O)c21 | -21.6%
CCCOc1ccc(OCCOCCNCc2ccccc2)cc1.O=C(O)C(=O)O | -0.713%
C[C@]12CCC3C(CCC4=CC(O)CC[C@@]43/C=N/O)C1(O)CCC2C1=CC(=O)OC1 (stereo partly drawn) | 8.46%
COc1ccc(-c2nc(CS(=O)CC(=O)NCc3ccccn3)c(C)o2)cc1 (stereo not drawn) | 9.54%
Cc1ccc(C(=O)NNC(=O)CSc2nnc(-c3ccncc3)n2-c2ccc(C)cc2)cc1 | -32.3%
Cc1cccc(NC(=O)C2CCN(S(=O)(=O)c3cccs3)CC2)n1 | 2.08%
CCc1ccc(NC(=S)Nc2ccc(S(=O)(=O)Nc3ncccn3)cc2)cc1 | 8.81%
COc1cccc(C(=O)Nn2c(C)nnc2-n2nc(C)cc2C)c1 | -12.6%
Cc1ccc(NC2=C(Cl)C(=O)OC2NC(=O)c2ccccc2)cc1 (stereo not drawn) | 17%
CCNC(=O)N1c2ccc(OC)cc2C(C)=CC1(C)C | 18.4%
COC(C)(C)c1cc(C(C)(C)C)nc(N)n1 | 14.8%
CCCc1cc(C(=O)N(C2CCCCC2)C2CCCCC2)no1 | 13.3%
